# Changes are numbered by the printed parent chain.
# B1: PR301172: fully human anti-LIFR IgG1 antibody; VH SEQ ID NO: 59, VL SEQ ID NO: 69, HC SEQ ID NO: 83, LC SEQ ID NO: 93 (antibody)
# heavy: EVQLLESGGGLVQPGGSLRLSCATSGFTFSNYAMTWVRQAPGKGLEWVVISGSGFLTYYADAVKGRFTISRVNSKNSLYLQMNSLRAEDTAVYYCTKGGILTGFDYWGQGTLVTVSS[here human IgG1 constant region without letters]
# light: KIVMTQSPATLSVSPGERATLSCRASQNLNSNLAWYQQTPGQAPRLLIYGASTRAPGIPARFSGSGSGTEFTLTISSLQSEDFVVYFCQQYNNWPRTFGQGTKVEIKRTVAAPSVFIFPPSDEQLKSGTASVVCLLNNFYPREAKVQWKVDNALQSGNSQESVTEQDSKDSTYSLSSTLTLSKADYEKHKVYACEVTHQGLSSPVTKSFNRGEC
# B2: PR301153: fully human anti-LIFR IgG1 antibody; VH SEQ ID NO: 52, VL SEQ ID NO: 65, HC SEQ ID NO: 76, LC SEQ ID NO: 89 (antibody)
# heavy: QVQLVESGGGVVQPGRSLRLSCAASGFTFSSYGMDWVRQAPGKGLEWVAVIWYDGSNKFYADSVRGRFTISRDNSQNTLYLQMNSLRAEDTAVYYCARELWFGELLSPFDFWGQGTLVTVSS[here human IgG1 constant region without letters]
# light: [here about 100 residues without letters][here about 120 residues without letters]
# B3: PR301160: fully human anti-LIFR IgG1 antibody; VH SEQ ID NO: 51, VL SEQ ID NO: 64, HC SEQ ID NO: 75, LC SEQ ID NO: 88 (antibody)
# heavy: B2 heavy with F109L
# light: [here about 100 residues without letters][here about 120 residues without letters]
# B4: PR301164: fully human anti-LIFR IgG1 antibody; VH SEQ ID NO: 47, VL SEQ ID NO: 61, HC SEQ ID NO: 71, LC SEQ ID NO: 85 (antibody)
# heavy: B2 heavy with F59Y, R65K, Q76K
# light: KIVLTQSPGTLSLSPGGRATLSCRASQSISSSYLAWYQQKPGQAPRLLIYAASNRATGIPDRFSGSGSGTDFTLTISRLEPEDFAVYYCQQYGSSPFTFGPGIKVDIKRTVAAPSVFIFPPSDEQLKSGTASVVCLLNNFYPREAKVQWKVDNALQSGNSQESVTEQDSKDSTYSLSSTLTLSKADYEKHKVYACEVTHQGLSSPVTKSFNRGEC
# System: monkey LIFR-ECD
# Assay: ELISA binding of antibodies to monkey LIFR-ECD at the protein level
# Conditions: not given
# Method: (§1) The binding ability of the 15 antibodies prepared in examples 1-4 of the present invention to the LIFR-ECD protein was detected based on the ELISA assay method. The binding affinity of different antibodies was determined by comparing their dose response binding curves to LIFR-ECD protein. The specific experimental process is as follows: First, human LIFR-ECD, monkey LIFR-ECD and mouse LIFR-ECD proteins are diluted to a concentration of 1 μg/mL, added to a 96-well plate (100 μL per well) and placed at 4° C. overnight. The 96-well plates were washed three times with PBST solution and then placed at 37° C. for 1 h with the addition of 2% BSA in PBS solution. Antibody seris dilution is prepared and (100 nM, 10-fold-dilution), added to a 96-well plate and incubate at 37° C. for 1 h. After washing three times with PBST solution, add anti-human IgG Fc-HRP secondary antibody (for 5000× dilution) and incubate at 37° C. for 30-60 min. After washing three times with PBST solution, add TMB color development solution for 5-15 minutes, and then add termination solution to ternimate the color development.
row,Molecule,binding ability to monkey LIFR-ECD protein (in words)
1,B1,have binding ability
2,B2,have binding ability
3,B3,have binding ability
4,B4,have binding ability

# Biological target: T1, human LIFR-ECD (Homo sapiens, UniProt P42702)
# T1 construct: The extracellular region (1-833 a.a.) of recombinant human LIFR protein; His tag; made in house; host or cells: HEK293 (transient transfection, purified from culture supernatant)
# T1 sequence (P42702 45-833): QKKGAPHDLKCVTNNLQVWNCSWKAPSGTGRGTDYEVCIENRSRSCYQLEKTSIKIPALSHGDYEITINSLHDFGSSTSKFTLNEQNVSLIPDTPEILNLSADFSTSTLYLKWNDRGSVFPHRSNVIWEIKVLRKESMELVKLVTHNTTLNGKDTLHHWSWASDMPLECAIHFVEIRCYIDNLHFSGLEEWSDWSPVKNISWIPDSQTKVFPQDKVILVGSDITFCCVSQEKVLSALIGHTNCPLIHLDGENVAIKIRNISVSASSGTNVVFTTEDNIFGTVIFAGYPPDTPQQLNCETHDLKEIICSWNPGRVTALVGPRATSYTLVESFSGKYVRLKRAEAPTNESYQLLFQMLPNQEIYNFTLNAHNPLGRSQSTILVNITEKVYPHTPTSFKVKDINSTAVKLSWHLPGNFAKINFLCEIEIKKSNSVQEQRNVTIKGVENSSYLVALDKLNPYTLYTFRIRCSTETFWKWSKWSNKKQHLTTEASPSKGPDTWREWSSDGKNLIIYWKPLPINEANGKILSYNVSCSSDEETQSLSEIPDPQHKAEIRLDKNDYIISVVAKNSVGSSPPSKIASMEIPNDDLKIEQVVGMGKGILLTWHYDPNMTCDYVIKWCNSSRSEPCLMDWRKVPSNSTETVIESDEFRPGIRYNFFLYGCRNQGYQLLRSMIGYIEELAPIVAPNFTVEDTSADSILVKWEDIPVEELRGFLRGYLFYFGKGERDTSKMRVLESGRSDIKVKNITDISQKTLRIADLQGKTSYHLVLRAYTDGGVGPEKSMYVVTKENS
# Assay: ELISA binding of antibodies to human LIFR-ECD at the protein level
# Conditions: not given
# Method: as §1
row,Molecule,binding ability to human LIFR-ECD protein (in words)
1,B1,have binding ability
2,B2,have binding ability
3,B3,have binding ability
4,B4,have binding ability

# Biological target: T2, human LIFR/gp130 heterodimer expressed on the surface of 293T cells (Homo sapiens, UniProt P42702)
# T2 construct: expressed in transfected cells; host or cells: HEK293T, lentiviral transduction (lenti-LIFR/gp130), puromycin selection, monoclonal line
# T2 sequence (P42702 45-1097): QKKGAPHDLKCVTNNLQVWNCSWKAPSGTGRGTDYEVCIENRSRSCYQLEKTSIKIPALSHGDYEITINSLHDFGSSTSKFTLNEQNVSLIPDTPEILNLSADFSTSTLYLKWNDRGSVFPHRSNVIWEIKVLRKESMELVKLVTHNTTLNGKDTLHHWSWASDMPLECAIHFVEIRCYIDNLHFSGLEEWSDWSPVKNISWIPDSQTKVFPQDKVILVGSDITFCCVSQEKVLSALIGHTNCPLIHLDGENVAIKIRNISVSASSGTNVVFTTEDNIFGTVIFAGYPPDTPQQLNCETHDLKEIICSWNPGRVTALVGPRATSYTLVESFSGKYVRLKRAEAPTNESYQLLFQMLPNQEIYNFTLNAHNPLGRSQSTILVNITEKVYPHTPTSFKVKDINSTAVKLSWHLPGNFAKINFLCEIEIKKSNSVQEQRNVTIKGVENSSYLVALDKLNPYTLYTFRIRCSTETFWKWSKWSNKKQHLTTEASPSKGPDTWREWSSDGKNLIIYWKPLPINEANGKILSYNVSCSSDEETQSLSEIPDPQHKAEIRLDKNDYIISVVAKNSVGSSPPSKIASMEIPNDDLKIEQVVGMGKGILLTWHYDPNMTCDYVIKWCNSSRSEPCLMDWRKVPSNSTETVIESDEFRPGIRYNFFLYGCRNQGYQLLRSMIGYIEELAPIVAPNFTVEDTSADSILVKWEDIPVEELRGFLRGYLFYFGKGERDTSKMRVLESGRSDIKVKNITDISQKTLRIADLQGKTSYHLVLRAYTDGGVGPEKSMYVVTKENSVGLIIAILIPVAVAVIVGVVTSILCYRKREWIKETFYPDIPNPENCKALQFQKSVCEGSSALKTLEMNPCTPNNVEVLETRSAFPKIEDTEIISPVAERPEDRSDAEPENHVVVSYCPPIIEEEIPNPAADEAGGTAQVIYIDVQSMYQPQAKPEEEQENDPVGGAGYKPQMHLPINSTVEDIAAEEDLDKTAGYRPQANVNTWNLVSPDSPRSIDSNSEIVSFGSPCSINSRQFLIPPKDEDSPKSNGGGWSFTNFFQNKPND
# Assay: Flow cytometry blocking of huLIF binding to HEK293T-huLIFR/gp130 cells
# Conditions: compared with the negative control hIgG1
# Method: The ability of the 15 antibodies prepared in examples 1-4 of the present invention to block the binding of the huLIF protein to the human LIFR/gp130 heterodimer expressed on the surface of 293T cells was tested based on flow cytometry. The blocking ability was determined by comparing the dose response curves of different antibodies blocking the binding of huLIF protein to HEK293T-huLIFR/gp130 cells.
# The specific experimental process is: (1) First determine the EC80 concentration of huLIF protein binding to HEK293T-huLIFR/gp130 cells. Label the huLIF protein to obtain the huLIF-biotin protein; (2) make serise diluton of test antibodies and incubate with HEK293T-huLIFR/gp130 cells and huLIF protein (final concentration is the value of EC80) at 4° C. After washing three times with PBS, incubate with APC-labeled Strepavidin secondary antibody for 30 minutes at 4° C. After washing three times with PBS, resuspend the cells with 100 μL FACS buffer; (3) Use flow cytometry to measure the four-channel median fluorescenceDegree value. Use the logarithm of the antibody concentration to base 10 as the abscissa, and plot the four-channel median fluorescence value on the ordinate to compare the IC50 and the peak value of the curve.
row,Molecule,block huLIF binding to HEK293T-huLIFR/gp130 (in words)
1,B2,significantly block
2,B3,significantly block
3,B4,significantly block

# Biological target: T3, mouse LIFR-ECD (Mus musculus, UniProt P42703)
# T3 construct: mouse LIFR-ECD proteins
# T3 sequence (P42703 44-828 limits assumed): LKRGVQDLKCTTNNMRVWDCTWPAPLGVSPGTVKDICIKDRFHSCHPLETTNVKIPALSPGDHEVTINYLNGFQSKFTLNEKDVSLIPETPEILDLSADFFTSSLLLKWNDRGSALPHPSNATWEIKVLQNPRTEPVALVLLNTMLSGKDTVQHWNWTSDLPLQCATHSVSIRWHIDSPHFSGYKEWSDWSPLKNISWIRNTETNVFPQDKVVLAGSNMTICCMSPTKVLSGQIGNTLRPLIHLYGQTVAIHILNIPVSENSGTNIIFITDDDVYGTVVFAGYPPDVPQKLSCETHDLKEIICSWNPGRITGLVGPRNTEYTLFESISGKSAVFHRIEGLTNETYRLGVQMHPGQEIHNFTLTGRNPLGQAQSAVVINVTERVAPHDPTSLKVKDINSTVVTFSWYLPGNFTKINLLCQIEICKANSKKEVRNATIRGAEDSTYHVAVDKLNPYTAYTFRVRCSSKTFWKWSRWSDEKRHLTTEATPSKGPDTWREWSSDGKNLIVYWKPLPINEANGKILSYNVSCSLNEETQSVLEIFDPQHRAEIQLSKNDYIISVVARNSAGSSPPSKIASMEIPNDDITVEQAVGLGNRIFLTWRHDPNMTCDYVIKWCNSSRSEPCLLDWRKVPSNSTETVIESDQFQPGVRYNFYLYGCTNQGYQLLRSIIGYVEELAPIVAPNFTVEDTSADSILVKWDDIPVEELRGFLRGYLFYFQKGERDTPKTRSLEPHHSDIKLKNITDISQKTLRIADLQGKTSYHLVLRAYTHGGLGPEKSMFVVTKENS
# Assay: ELISA binding of antibodies to mouse LIFR-ECD at the protein level
# Conditions: not given
# Method: as §1
row,Molecule,cross-binding to mouse LIFR-ECD protein (in words)
1,B1,can cross-binding

# Source: patent publication US20250136702A1, “HUMAN LIFR ANTIGEN BINDING PROTEIN, PREPARATION METHOD THEREFOR, AND APPLICATION THEREOF” (NONA BIOSCIENCES (SUZHOU) CO., LTD., priority 2020, published 2025)
